Test results published in PubChem BioAssay AID686978 (National Center for Advancing Translational Sciences (NCATS), 2013).
Where “and” joins values, the source holds several entries; their conditions need not be identical. Identical values can stand only once. Hit rate of the full screen: of about 420,000 compounds, about 64,000 (15%) were called active. Inconclusive results, whose numbers are uncertain, are shown with a selection of clear calls. The call rests on the fitted dose curve; in most records, active means well fitted inhibition curve with a large enough effect; inconclusive means small, poorly fitted or top-dose-only effect; inactive means flat fitted curve, though single readings scatter. Where the call is inconclusive, the potency comes from a doubtful curve fit.

Assay: qHTS for Inhibitors of human tyrosyl-DNA phosphodiesterase 1 (TDP1): qHTS in cells in absence of CPT; further: nearly all actives have a fitted effect of over 55% in size
Conditions: DT40 Tdp1-/- hTDP1 cells, no CPT, ATP luminescence, 48 h; activity change, negative = growth inhibition: at 46.2 µM (top of the series) unless noted
Outline: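 Luminescent ATP content (CellTiter-Glo) served as the growth readout. Knockout chicken DT40 cells expressing human TDP1 were exposed to compounds without camptothecin for a minimum 48 hr at 37 °C.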
On the % scale 0 is the no-effect control and ±100 the full control effect; potency means the concentration at half of the fitted maximal effect; tags describe the fitted curve by direction and shape.

| SMILES | Potency | activity change, negative = growth inhibition |
| --- | --- | --- |
| CCOCCCNC(=O)c1ccc2nc(-c3ccc(OC)c(OC)c3)c(-c3ccc(OC)c(OC)c3)nc2c1 | inconclusive: 13 µM [inhibitor, partial curve] | – |
| CC(=O)NC[C@H]1CN(c2ccc(N3CCOCC3)c(F)c2)C(=O)O1 | inconclusive: 21.1 µM [inhibitor, single point] | – |
| CCOc1ccc(C(=O)Nc2ccc(-n3nncc3-c3ccc(OC)cc3)cc2)cc1 | inconclusive: 29.1 µM [inhibitor, single point] | – |
| O=C(COC(=O)c1ccc(F)c([N+](=O)[O-])c1)NC(=O)NCc1ccccc1 | inconclusive: 20.6 µM [inhibitor, single point] | – |
| COc1ccc(CCn2c(N)c(C(=O)NCc3ccco3)c3nc4ccccc4nc32)cc1OC | active: 16.4 µM | – |
| COc1ccc(/C=N/NC(=O)CCCOc2ccc(Cl)cc2Cl)cc1[N+](=O)[O-] | active: 16.4 µM | – |
| CN(CC(=O)Nc1ccccc1Cl)C(=O)c1ccc(COc2ccccc2)cc1 | inconclusive: 23.1 µM [inhibitor, single point] | – |
| OC(COCc1ccccc1)Cn1cnc2ccccc21 (stereo not drawn) | inconclusive: 0.0046 µM [inhibitor, full curve, poor fit] | – |
| O=C(OCn1ncc(Cl)c(Cl)c1=O)c1cccc(C(F)(F)F)c1 | active: 3.26 µM | – |
| COc1ccc(CC(=O)OCC(=O)NCc2ccc(C)cc2)cc1OC | – | inactive: 4.59% |
| Cc1ccc(C(=O)c2ccccc2C(=O)OCC(=O)NCCc2ccccc2)cc1 | inconclusive: 29.1 µM [inhibitor, single point] | – |
| Cc1ccc(NC(=O)CSc2nc(-c3ccco3)nc3cc(=O)[nH]n23)cc1 | – | inactive: -4.87% |
| COc1ccc(C(C(=O)NC(C)(C)C)N(CCc2ccc(OC)c(OC)c2)C(=O)CCC(=O)Nc2cc(C)on2)cc1 (stereo not drawn) | inconclusive: 23.1 µM [inhibitor, single point] | – |
| COc1ccc(-c2onc3ccc(C(=O)/C=C/N(C)C)cc23)cc1 | active: 20.6 µM | – |
| Cc1ccc(-c2nc3ncccn3c2Nc2ccc3c(c2)OCO3)o1 | – | inactive: -28.8% |
| S=C(Nc1cccc(Cl)c1Cl)NC1CCN(Cc2ccccc2)CC1 | inconclusive: 10.3 µM [inhibitor, partial curve] | – |
| Cc1ccc(O)c(NC(=S)NC(=O)c2ccccc2Cl)c1 | inconclusive: 11.6 µM [inhibitor, single point] | – |
| CCc1ccc(OC(=O)/C=C/c2ccco2)cc1 | – | inactive: 13.7% |
| CC(C)(C)c1ccc(S(=O)(=O)N2CCN(c3nc(-c4cccs4)nc4ccccc34)CC2)cc1 | inactive and inconclusive: 25.1 µM [inhibitor, single point] | – |
| CCc1noc(C)c1C(=O)Nc1ccc(S(=O)(=O)N2CCC(C)CC2)cc1 | inconclusive: 9.2 µM [inhibitor, partial curve] | – |
| O=C(CCN1C(=O)/C(=C/c2ccccc2)SC1=S)Nc1ccccn1 | – | inactive: -12.9% |
| CCCc1cc(=O)[nH]c(Nc2ccc(OCC)cc2)n1 | inconclusive: 16.4 µM [inhibitor, partial curve] | – |

| SMILES | Potency | activity change, negative = growth inhibition |
| --- | --- | --- |
| COc1ccccc1NC(=O)C1=C(C)Nc2nc(-c3ccco3)nn2C1c1ccccc1F (stereo not drawn) | inconclusive: 18.4 µM [inhibitor, single point] | – |
| COC(=O)C1=CN(c2ccc(Oc3ccccc3)cc2)C(N)=C(C#N)C1c1cccc(OC)c1OC (stereo not drawn) | active: 13 µM | – |
| CC(=O)c1ccc(NC(=O)C(C)Sc2nnc(-c3ccncc3)n2C2CC2)cc1 (stereo not drawn) | – | inactive: -6.79% |
| Cc1cnc(C(=O)Nc2cccc(S(=O)(=O)N(C)C)c2)cn1 | inconclusive: 18.4 µM [inhibitor, single point] | – |
| COc1cc(CC(=O)NC2CCCc3ccccc32)cc(OC)c1OC (stereo not drawn) | inconclusive: 18.4 µM [inhibitor, single point] | – |
| Cc1c(CCO)sc[n+]1CC(=O)c1ccc2ccccc2c1 | active: 15.8 µM | – |
| Cn1nnnc1SCCNCc1ccc(Cl)c(Cl)c1 | – | inactive: -6.41% |
| CCCCCCCCCCCCN1C/C(=C\C(=O)OCC)c2cc(C(F)(F)F)ccc2S1(=O)=O | inconclusive: 22.4 µM [inhibitor, single point] and inconclusive: 18.4 µM [inhibitor, single point] | – |
| Cc1ccc(Cn2c(C)c3cnn(CC(=O)NCCc4ccc(Cl)cc4)c(=O)c3c2C)cc1 | inconclusive: 25.9 µM [inhibitor, single point] | – |
| O=C1CC(N2CCCN(C3CC(=O)N(c4ccc(F)cc4)C3=O)CC2)C(=O)N1c1ccc(F)cc1 (stereo not drawn) | inconclusive: 20.6 µM [inhibitor, single point] | – |
| COc1cc(C(=O)NCCSc2ccc(Cl)cc2)cc(OC)c1OC | inconclusive: 29.1 µM [inhibitor, single point] | – |
| CCOC(=O)c1c(C)[nH]c(C(=O)N/N=C\c2ccccc2O)c1C | active: 3.66 µM | – |
| CC(C)(C)c1ccc(/C=C/C(=O)NC2CCS(=O)(=O)C2)cc1 (stereo not drawn) | inconclusive: 23.1 µM [inhibitor, partial curve, poor fit] | – |
| COc1cccc(CCNC(=O)c2cnc3sc(N4CCOCC4)nn3c2=O)c1 | inconclusive: 11.6 µM [inhibitor, partial curve] | – |
| Cc1ccc2cc(CN(CCCN(C)C)C(=O)NCc3ccccc3)c(=O)[nH]c2c1C | inconclusive: 29.1 µM [inhibitor, single point] | – |
| COc1ccc(CCNC(=O)Cn2c(=O)c3cccn3c3cccnc32)c(OC)c1OC | inconclusive: 29.1 µM [inhibitor, single point] | – |
| O=C(N[C@@H](Cc1ccccc1)C(=O)N1CCN(S(=O)(=O)c2ccc(F)cc2)CC1)c1ccco1 | active: 20.6 µM | – |
| Cc1ccc(S(=O)(=O)NCCNC(=O)c2ccc(C)nc2)cc1 | – | inactive: -9.28% |
| Cc1ccccc1C(=O)N1CCN(c2ccc(NC(=O)c3ccc([N+](=O)[O-])o3)cc2)CC1 | active: 2.31 µM | – |
| COc1ccc(C(CC(=O)N2CCOCC2)c2c(O)cc(OC)cc2OC)cc1 (stereo not drawn) | – | inactive: -5.75% |
| COc1cc2c(cc1OC)C(c1cc([N+](=O)[O-])ccc1O)NCC2 (stereo not drawn) | – | inactive: -2.57% |
